Where “and” joins values, the source holds several entries; their conditions need not be identical. Identical values can stand only once. About 1,200 (2.5%) of roughly 48,000 compounds were called active. Roughly 2% stayed inconclusive and do not appear here.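 How the source made its calls: active means activation of at least 60% and not above a set upper limit (about 1 call in 100 departs from these limits); inconclusive means activation of 40% to 60%, or above that upper limit; inactive means activation under 40%.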 Some of the results follow.

UniProt O75388, sequence (O75388 whole entry, looked up): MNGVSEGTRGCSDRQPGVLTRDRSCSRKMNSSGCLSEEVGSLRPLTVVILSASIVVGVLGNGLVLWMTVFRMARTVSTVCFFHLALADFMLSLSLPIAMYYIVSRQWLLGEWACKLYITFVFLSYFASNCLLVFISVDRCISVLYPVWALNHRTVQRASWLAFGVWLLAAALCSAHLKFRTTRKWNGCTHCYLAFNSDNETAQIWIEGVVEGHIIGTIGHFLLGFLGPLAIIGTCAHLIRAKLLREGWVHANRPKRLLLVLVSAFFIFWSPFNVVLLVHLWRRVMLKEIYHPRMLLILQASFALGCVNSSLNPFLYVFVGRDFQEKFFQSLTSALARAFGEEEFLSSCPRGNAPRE

This experiment deals with Probable G-protein coupled receptor 32 (Homo sapiens) (UniProt O75388). Briefly: qHTS for Agonists of Human Resolvin D1 Receptor DRV1. Further: 0% is about no effect. Conditions: CHO-K1 GPR32 beta-arrestin PathHunter luminescence, 90 min; at 76.9 µM; hits give high values; zero percent set by DMSO-only wells. Put shortly:
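Beta-arrestin recruitment read-out: luminescence from complemented beta-Gal in CHO-K1 GPR32 PathHunter cells, measured 1 h after detection reagent at ambient temperature following 90 min compound exposure at 37 °C; DMSO served as basal (EC0) control.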
With `Nc1ccc([N+](=O)[O-])cc1`, the activation is inactive: -34.8%.

Regarding `CCCN(CCC)[C@H]1CCc2c(F)ccc(O)c2C1`, the activation was inactive: -4.33%.

On to `Cc1nnc2n1-c1sc(CCC(=O)N3CCOCC3)cc1C(c1ccccc1Cl)=NC2`, for which the activation is inactive: -5.79%.

In the case of `CCCc1nc(SC)ncc1C(=O)Nc1ccc(Cl)cc1C(=O)c1ccccc1`, the activation is inactive: -3.38%.

Consider `C/C=C(/C)C(=O)O[C@H]1C(C)=C2[C@H]([C@@H]1OC(=O)CCCCCCC)[C@@](C)(OC(C)=O)C[C@H](OC(=O)CCC)[C@@]1(O)[C@H]2OC(=O)[C@@]1(C)O`, for which the activation is inactive: -37%.

Regarding `CC[N+]1(C)CCCC(OC(=O)C(O)(c2ccccc2)c2ccccc2)C1` (stereo not drawn), the activation is inactive: -8.83%.

On to `O=C(Nc1nc2ccccc2s1)c1cccn(Cc2ccccc2)c1=O`, for which the activation is inactive: -2.96%.

Regarding `CC(Cc1ccccc1)N(C)Cc1ccco1` (stereo not drawn), the activation was inactive: 2.13%.

Consider `CN(C)CCc1c[nH]c2ccccc12`, for which the activation was inactive: -1.57%.

Turning to `Cc1cccc(OC(C)C(=O)NCC2(N(C)C)CCCCC2)c1C` (stereo not drawn), the activation was inactive: 1.63%.

With `Cc1nnc(NC(=O)c2cccn(Cc3ccccc3)c2=O)s1`, the activation was inactive: 21.5%.

For the compound `c1ccc2cc(CC3=NCCN3)ccc2c1`, the activation is inactive: -9.71%.

As for `C[C@]12CC[C@H]3[C@@H](CCC4=CC(=O)CC[C@@H]43)[C@@H]1CC[C@@H]2OC(=O)CCc1ccco1`, the activation was active: 119%.

For `COP(=S)(OC)Oc1ccc(Sc2ccc(OP(=S)(OC)OC)cc2)cc1`, the activation is inactive: 5.4%.

On to `CCCCCCC(=O)CCCCCC/C=C/C[C@@H](O)[C@H](O)[C@@](N)(CO)C(=O)O`, for which the activation was inactive: 6.21%.

As to `O=C(Nc1ccc(F)c([N+](=O)[O-])c1)c1cccn(Cc2ccccc2)c1=O`, the activation was inactive: -0.362%.

Take `Cc1cccc(OCC(=O)N2CCN(CCc3ccccn3)CC2)c1`: the activation was inactive: 5.12%.

Take `Cc1ccc(-n2c(=O)[nH]c3ccc(Br)cc3c2=O)cc1`: the activation is inactive: -62.9%.

`CC1(C)CC/C(=C/c2ccc(Cl)cc2)C1(O)Cn1cncn1` (stereo not drawn): the activation was inactive: 20.9%.

For `COc1ccc2c(c1OC)C(=O)O[C@H]2[C@@H]1c2cc3c(cc2CCN1C)OCO3`, the activation was inactive: -3.73% and inactive: 8.64%.

In the case of `CCCN1CCO[C@@H]2c3cc(O)ccc3OC[C@H]21`, the activation was inactive: -7.02% and inactive: -15.8%.

As for `CC(=O)NC1CCSC1=O` (stereo not drawn), the activation is inactive: -35.9%.

As for `O=C(COc1ccccc1F)N1CCN(Cc2cc(=O)n3nc(-c4ccccc4Cl)sc3n2)CC1`, the activation is inactive: -10.1%.

With `CCN(CC)CCN1C(=O)CN=C(c2ccccc2F)c2cc(Cl)ccc21`, the activation was inactive: 7.02%.

Regarding `O=C(O)[C@@H]1CCN1`, the activation was inactive: 6.43%.

For `O=C(NC(O)C(Cl)(Cl)Cl)NC(O)C(Cl)(Cl)Cl` (stereo not drawn), the activation is inactive: 11.9%.

Turning to `Cc1ccc2c(c1)C(Cc1nc3ccccc3c(=O)n1-c1ccc(Br)cc1)C(=O)N2` (stereo not drawn), the activation was inactive: -20.5%.

Turning to `Oc1ccccc1-c1ccccc1`, the activation was inactive: 2.58%.

As to `COc1ccc(NC(=O)c2sc3nc4c(cc3c2N)N2CCC4CC2)cc1OC`, the activation was inactive: 45.2%.

With `CCCCCCCCCC(CC)c1ccc(S(=O)(=O)O)cc1` (stereo not drawn), the activation is active: 101%.

For `Cc1cccc(CN2CC=C(c3noc(CCC(=O)Nc4ccc(C)c(F)c4)n3)CC2)c1`, the activation is active: 93.6%.

As for `CN1C2CCC1CC(OC(=O)c1cc(Cl)cc(Cl)c1)C2` (stereo not drawn), the activation was inactive: -10.8%.

Turning to `O=C(O)Cc1cnc[nH]1`, the activation is inactive: 2.79%.

Consider `c1ccc2c(c1)sc1ccccc12`, for which the activation was inactive: -22.3%.

As to `CC(C)(C)CC(C)(C)c1ccc(O)cc1`, the activation is active: 116%.

Regarding `O=P1(N(CCCl)CCCl)NCCCO1` (stereo not drawn), the activation was inactive: -7.74% and inactive: 8.76%.

Take `O=C(COc1cc(Cl)ccc1Cl)Nc1ccc(Cl)cc1C(=O)c1ccccc1`: the activation was inactive: -14%.

Consider `NC(=O)CS(=O)C(c1ccccc1)c1ccccc1` (stereo not drawn), for which the activation was inactive: -20.6%.

For `CN1C(=O)CCS(=O)(=O)C1c1ccc(Cl)cc1` (stereo not drawn), the activation is inactive: -30.6% and inactive: -2.32%.

For `Cc1cccc(Cc2cnc[nH]2)c1C`, the activation was inactive: -7.87%.

Regarding `Cc1ccc2nc(NC(=O)c3cccn(Cc4ccc(Cl)cc4)c3=O)sc2c1`, the activation is inactive: 6.54%.

`COC[C@@H](NC(C)=O)C(=O)NCc1ccccc1`: the activation is inactive: -19.2%.

For the compound `O=C1C=CC(=O)C=C1`, the activation was inactive: 4.86%.

Take `Cc1ccc(Cl)cc1NC(=O)N(Cc1ccc2c(c1)OCO2)C1CCN(Cc2ccccc2)CC1`: the activation is inactive: -1.92%.

For the compound `CCOP(=S)(OCC)Oc1ccc2c(C)c(Cl)c(=O)oc2c1`, the activation is inactive: 3.87%.

For the compound `CCOC(=O)C(c1c(O)c2ccccc2oc1=O)c1c(O)c2ccccc2oc1=O`, the activation was inactive: -13.3%.

Turning to `Cn1c(=O)n(C)c2cc(CNCCc3ccc(F)cc3)ccc21`, the activation is inactive: -0.681%.

For the compound `Cc1ccc(NC(=O)Cn2cc(C(=O)c3ccccc3)c3ccccc32)cc1`, the activation was inactive: -16.5%.

Take `Cc1cccc(-c2nc(CN3C(=O)CN=C(c4ccccc4)c4ccccc43)c(C)o2)c1`: the activation is active: 62.6%.

On to `CCOC(=O)NC(O)C(Cl)(Cl)Cl` (stereo not drawn), for which the activation was inactive: -17.7%.

`COc1ccc(C(c2ccc(OC)cc2)C(Cl)(Cl)Cl)cc1`: the activation was inactive: -25.9%.

For the compound `Cc1ccc(-n2c(/C=C\c3ccc(F)cc3)nc3ccccc3c2=O)cc1Cl`, the activation was inactive: -14.6%.

Turning to `CC(C)C12CN3CC(C(C)C)(CN(C1)C3c1ccccn1)C2=O` (stereo not drawn), the activation is inactive: -8.58%.

For `CCOc1ccc(NC(=O)Cn2cc(C(=O)c3ccccc3)c3ccccc32)cc1`, the activation was inactive: -15%.

Regarding `COc1ccc(C)cc1NC(=O)N(Cc1ccc2c(c1)OCO2)C1CCN(Cc2ccccc2)CC1`, the activation was inactive: -5.29%.

As to `CCOc1ccc(CN(CCc2ccc3c(c2)OCO3)Cc2cccc(OC)c2)cc1`, the activation was inactive: -7.28%.

For the compound `COc1ccccc1N1CCNCC1`, the activation is inactive: -10.4% and inactive: -4.69%.

In the case of `Cc1cccc(Cn2cccc(C(=O)Nc3ccc4c(c3)OCCO4)c2=O)c1`, the activation was inactive: -9.64%.

Turning to `CC(=O)c1c(O)c(C)c(O)c(Cc2c(O)c3c(c(C(=O)/C=C/c4ccccc4)c2O)OC(C)(C)C=C3)c1O`, the activation is inactive: -24.4%.

With `CCN(CC)CCSc1nc2ccccc2c(=O)n1-c1ccc(Cl)cc1`, the activation was inactive: -27.6%.

As for `CC(=O)[C@H]1CC[C@H]2[C@@H]3CC[C@H]4C[C@H](O)CC[C@]4(C)[C@H]3C(=O)C[C@]12C`, the activation was inactive: 38.5% and inactive: -6.27%.

With `C=C1C[C@@H]2[C@H](CC[C@]3(C)C(=O)CC[C@@H]23)[C@@]2(C)C=CC(=O)C=C12`, the activation is inactive: 12.4%.

On to `COc1cccc(NC(=O)Cn2cc(C(=O)c3ccccc3)c3ccccc32)c1`, for which the activation is inactive: -18.7%.

On to `CNC(C)Cc1ccccc1OC` (stereo not drawn), for which the activation was inactive: -2.63%.

Regarding `C[C@H]1CNCCc2ccc(Cl)cc21`, the activation is inactive: 9.95%.

On to `C[C@]12C/C(=C/O)C(=O)C[C@@H]1CC[C@@H]1[C@@H]2CC[C@@]2(C)[C@H]1CC[C@]2(C)O`, for which the activation is active: 89%.

Consider `Cc1ccc(Cn2cccc(C(=O)Nc3ccc4c(c3)OCO4)c2=O)cc1`, for which the activation was inactive: 20.3%.

For `CC1=NN=C(c2ccc(N)cc2)c2cc3c(cc2C1)OCO3`, the activation was inactive: -1.27%.

For the compound `O=C(O)c1cc[c]([Hg][Cl])cc1`, the activation is inactive: 19.4%.

Turning to `CCC(=O)O[C@@H]1C=C2CCC3C(CCC4(C)C3CC[C@@H]4OC(=O)CC)C2CC1` (stereo partly drawn), the activation was inactive: -4.52%.

Regarding `CCN(Cc1ccc(Cl)nc1)/C(=C/[N+](=O)[O-])NC`, the activation is inactive: -1.95%.

Consider `Cc1ccc(CN2C(=O)c3ccccc3Sc3ccc(C(=O)N4CCC5(CC4)OCCO5)cc32)cc1`, for which the activation was inactive: -28.2%.

`CN1CC[C@]23c4c5ccc(O)c4O[C@H]2[C@@H](O)CC[C@H]3[C@H]1C5`: the activation was inactive: -47.5%.

As to `C/C(O)=C(\C#N)C(=O)Nc1cc(Br)ccc1Br`, the activation is inactive: -4.08%.

For `Cc1ccccc1-n1nc(C)c2c1NC(=O)CSC2c1ccc(N(C)C)cc1` (stereo not drawn), the activation is inactive: -3.65%.

For the compound `CCCCCc1nc2ccccc2c(=O)n1-c1ccc(C)cc1`, the activation is inactive: 26.7%.

Turning to `CCCC1CCCCN1` (stereo not drawn), the activation is inactive: -9.78%.

As for `Cc1ccc(NC(=O)CN2C(=O)CN=C(c3ccccc3)c3ccccc32)cc1`, the activation was inactive: -25.3%.

With `CCCC(C)(COC(N)=O)COC(=O)NC(C)C` (stereo not drawn), the activation was inactive: -6.54% and inactive: 4.27%.

As to `O=C(N[C@H]1N=C(c2ccccc2F)c2cccc3c2N(CC3)C1=O)c1cc2ccccc2[nH]1`, the activation is inactive: -1.76%.

As to `CN1C2CCC(C)(C)C1CC(OC(=O)C(O)(c1cccs1)c1cccs1)C2` (stereo not drawn), the activation was inactive: -6.18%.

For `O=C(CBr)Nc1ccc(Cl)cc1C(=O)c1ccccc1F`, the activation is inactive: -6.65%.

For `CCCCC/C=C\C/C=C\C/C=C\C/C=C\CCCC(=O)NCC(=O)O`, the activation was inactive: 10.3%.

Take `COc1cccc(-n2c(/C=C/c3ccccc3O)nc3ccccc3c2=O)c1`: the activation was inactive: 26.4%.

On to `CC(O)CN1CCN(CC(=O)[O-])CCN(CC(=O)[O-])CCN(CC(=O)[O-])CC1.[Gd+3]` (stereo not drawn), for which the activation is inactive: 5.1%.

For the compound `COc1ccc(-n2c(/C=C\c3ccccc3F)nc3ccccc3c2=O)cc1OC`, the activation is inactive: 11.3%.

In the case of `O=C1CN=C(c2ccccc2Cl)c2cc(Cl)ccc2N1Cc1cccc(Cl)c1`, the activation is inactive: -17.4%.

Take `C[C@]12CCC(=O)C=C1CC[C@@H]1[C@@H]2CC[C@]2(C)C(=O)CC[C@@H]12`: the activation is inactive: 48.8%.

For the compound `OC(c1ccccc1)(c1ccccc1)C1CCNCC1`, the activation is inactive: -20.8%.

Turning to `CC(C)c1nn2c(=O)cc(COC(=O)Cc3ccccc3)nc2s1`, the activation is inactive: 3.99%.

With `NC1CCc2cc(O)c(O)cc2C1` (stereo not drawn), the activation is inactive: -21.5%.

As for `NC(=O)OCCCc1ccccc1`, the activation is inactive: 2.78%.

For the compound `Nc1c(Cl)c(Cl)c(Cl)c(Cl)c1Cl`, the activation is inactive: 11.1%.
